Assay results taken from PubChem BioAssay AID588453 (National Center for Advancing Translational Sciences (NCATS), 2011).
In all, about 390,000 compounds went through this assay and about 4,000 (1%) were called active. The shares of active, inactive and inconclusive entries below differ from those in the screen. Calls follow the shape of the dose curve; as a rule, active = well fitted inhibition curve with a large enough effect; inconclusive = small, poorly fitted or top-dose-only effect; inactive = no such curve, though single readings can be large or run the other way. Where the call is inconclusive, the potency comes from a doubtful curve fit.

Each molecule was assayed against Thioredoxin reductase 1, cytoplasmic (Rattus norvegicus) (UniProt O89049) (assay: qHTS Assay for Inhibitors of Mammalian Selenoprotein Thioredoxin Reductase 1 (TrxR1): qHTS). Settings: recombinant rTrxR1, NADPH fluorescence consumption, selenite substrate; series mostly up to 114 µM.
Method in brief: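 Rat TrxR1 (90 nM in the dispensed reagent) was pre-reduced with 400 uM NADPH for 5 min at room temperature, then incubated with compound for 15 min. After 400 uM selenite was added, NADPH fluorescence (Ex 340/Em 450 nm) was followed for 8 min.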
% is scaled to controls: 0 for no effect and ±100 for the full control effect; potency is read from the fitted curve at half-maximal effect; tags tell the direction and shape of the fitted curve.
Also: nearly all actives have a fitted effect of over 65% in size.

Chain of UniProt O89049 (O89049 whole entry, looked up): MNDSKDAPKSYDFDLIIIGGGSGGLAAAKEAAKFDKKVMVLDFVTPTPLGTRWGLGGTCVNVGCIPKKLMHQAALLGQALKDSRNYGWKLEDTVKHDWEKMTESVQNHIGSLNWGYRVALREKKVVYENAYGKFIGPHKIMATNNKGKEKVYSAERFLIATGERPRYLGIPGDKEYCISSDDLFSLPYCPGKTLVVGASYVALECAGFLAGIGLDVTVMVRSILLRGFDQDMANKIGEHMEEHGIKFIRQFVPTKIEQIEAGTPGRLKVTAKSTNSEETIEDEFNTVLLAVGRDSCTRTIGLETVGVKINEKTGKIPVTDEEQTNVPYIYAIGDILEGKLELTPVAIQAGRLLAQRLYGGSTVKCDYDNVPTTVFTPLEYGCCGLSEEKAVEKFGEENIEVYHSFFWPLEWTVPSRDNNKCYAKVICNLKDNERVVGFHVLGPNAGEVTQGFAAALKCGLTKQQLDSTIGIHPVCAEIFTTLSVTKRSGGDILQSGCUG

| SMILES | Potency | activity change, negative = inhibition |
| --- | --- | --- |
| Oc1cc(CNC2CCCCC2)c(O)cc1CNC1CCCCC1 | inconclusive: 44.7 µM [inhibitor, partial curve] | – |
| O=C(CC1C(=O)N(c2ccc(F)cc2)C(=O)N1Cc1ccc2c(c1)OCO2)Nc1ccc(Cl)cc1 (centres undefined) | inactive | – |
| O=C(CCl)Nc1ccccc1C(=O)NCc1ccccc1 | inconclusive: 89.1 µM [inhibitor, single point] | – |
| COc1cc(NS(=O)(=O)c2ccc(NC(=S)NC(=O)c3ccc(F)cc3)cc2)nc(OC)n1 | inconclusive: 35.5 µM [inhibitor, partial curve] | – |
| Cc1ccc(C)c(Oc2ncnc(N)c2[N+](=O)[O-])c1 | inactive | – |
| CS(=O)(=O)c1sc2nc(-c3cccs3)cc(-c3ccccc3)c2c1N | inconclusive: 39.8 µM [inhibitor, single point] | – |
| CC(=O)N(c1ccc2oc(=O)sc2c1)S(=O)(=O)c1ccccc1 | inactive | – |
| COc1ccccc1N1C(C)=CC(=C(C#N)c2nc3ccccc3s2)C=C1C | inactive | – |
| N#C/C(=C(/O)CCl)c1nc2ccccc2[nH]1 | inconclusive: 15.8 µM [inhibitor, single point] | – |
| CCc1ccc(/C(C)=N/NC(=O)CNC(=O)/C=C/c2ccco2)cc1 | inconclusive: 44.7 µM [inhibitor, partial curve, poor fit] | – |
| CCCn1c(C(CO)Nc2nc(C)cs2)nc2ccccc21 (centres undefined) | inconclusive: 28.2 µM [inhibitor, single point] | – |
| O=C1/C(=C\c2ccncc2)SC(=S)N1C1CCCCC1 | inconclusive: 100 µM [inhibitor, single point] | – |
| Cc1ccc(C2=Nc3ccccc3N=C(C(Cl)Cl)C2)cc1 | inconclusive: 79.4 µM [inhibitor, single point] | – |
| CN(CCCNC(=O)c1cccn2c(=O)c3ccccc3nc12)Cc1ccccc1 | inconclusive: 39.8 µM [inhibitor, single point] | – |
| Cn1c(=O)c2c(-c3ccccc3)n(-n3cnnc3)cc2n(C)c1=O | inconclusive: 39.8 µM [inhibitor, partial curve, poor fit] | – |
| C/C(=C\c1ccc2c(c1)OCO2)C1Nc2cccc3cccc(c23)N1 | inconclusive: 20 µM [inhibitor, single point] | – |
| COc1ccc(C(NC(C)=O)c2ccc3cccnc3c2O)cc1OC (centres undefined) | inactive | – |
| O=C(c1ccco1)N1CCN(c2ccc([N+](=O)[O-])cc2F)CC1 | inconclusive: 44.7 µM [inhibitor, partial curve, poor fit] | – |
| Oc1ccccc1C(Nc1nccs1)c1ccc2cccnc2c1O (centres undefined) | inconclusive: 10 µM [inhibitor, full curve] | – |
| COc1ccccc1CN1C(=O)C2CC=CCC2C1=O (centres undefined) | inconclusive: 89.1 µM [inhibitor, single point] | – |
| CC1=CC(c2ccccc2)n2nc(N3C(=O)C4CC=CCC4C3=O)nc2N1 (centres undefined) | inconclusive: 44.7 µM [inhibitor, single point] | – |
| CC(=O)n1cc(N(C(=O)CCl)c2ccccc2)c2ccccc21 | active: 0.631 µM | – |
| N#CC1=C2SCN(Cc3ccco3)CN2C(=O)CC1c1cccc2ccccc12 (centres undefined) | inconclusive: 56.2 µM [inhibitor, single point] | – |

| SMILES | Potency | activity change, negative = inhibition |
| --- | --- | --- |
| C/C(=N\Nc1ccc([N+](=O)[O-])cc1)c1ccc(N)cc1 | inconclusive: 89.1 µM [inhibitor, partial curve, poor fit] | – |
| O=C(/C=C\c1cccs1)c1c(O)ccc2ccc(=O)oc12 | inconclusive: 79.4 µM [inhibitor, single point] | – |
| O=c1c(=O)n(O)c2ccccc2n1O | inactive | – |
| Cc1ccc(-n2nc3c(=O)n(CC(=O)NCC(C)c4ccccc4)nc(C)c3c2C)cc1 (centres undefined) | inactive | – |
| Cc1ccc(N(Cc2cc(=O)[nH]c3ccccc23)C(=O)CCl)cc1 | inconclusive: 11.2 µM [inhibitor, partial curve, poor fit] | – |
| O=C(COC(=O)c1ccc([N+](=O)[O-])s1)NC(=O)NCc1ccccc1 | inconclusive: 17.8 µM [inhibitor, full curve] | – |
| Cc1ccc(Nc2c(-c3ccsc3)nc3c(C)cccn23)cc1 | inactive | – |
| CC(=O)Oc1ccc(Cl)cc1CN(C(C)=O)C1CCCCC1 | inactive | – |
| CN(CC(=O)Nc1cccc(Cl)c1)S(=O)(=O)c1ccc2c(c1)n(C)c(=O)c(=O)n2C | active: 25.1 µM | – |
| O=C(Nc1ccc(F)cc1)c1ccc(-n2cncn2)c([N+](=O)[O-])c1 | – | inactive: -5.22% [at 11.4 µM] |
| CCOC(=O)c1nnn(-c2nonc2-n2cccc2)c1CCl | active: 12.6 µM | – |
| COc1ccccc1C(CNC(=O)CCNS(=O)(=O)c1ccc(Br)cc1)N1CCCC1 (centres undefined) | inactive | – |
| Cc1noc(/C=C/c2ccco2)c1S(=O)(=O)N1CCC(C(=O)NCc2ccco2)CC1 | inconclusive: 35.5 µM [inhibitor, single point] | – |
| Cc1ccc(C)c2[nH]c(=O)c(CCNC(=O)c3ccco3)cc12 | inconclusive: 50.1 µM [inhibitor, partial curve, poor fit] | – |
| CC(=O)N1CCN=C1SCc1ccccc1Cl | inconclusive: 89.1 µM [inhibitor, single point] | – |
| O=C(NNC(=S)NC(=O)c1ccccc1[N+](=O)[O-])c1ccccc1Cl | inactive | – |
| Cc1c(/C=N/Nc2ccc(F)cc2)c(O)n(C)c(=O)c1C#N | inconclusive: 39.8 µM [inhibitor, partial curve] | – |
| COc1ccccc1Cn1c(/C=C/c2ccccc2)nc2ccccc21 | inconclusive: 70.8 µM [inhibitor, single point] | – |
| Cc1cc2c(c(=O)n1Cc1cccnc1)C(c1cccs1)C(C#N)=C(N)O2 (centres undefined) | inconclusive: 39.8 µM [inhibitor, partial curve, poor fit] | – |
| COc1ccc(/C=N/Nc2ccc(C(=O)O)cc2)c(OC)c1OC | inconclusive: 89.1 µM [inhibitor, single point] | – |
| Cc1cc(-c2ccc(/C=N/n3cnnc3)o2)c([N+](=O)[O-])cc1C | inconclusive: 10 µM [inhibitor, partial curve, poor fit] | – |
| COc1cccc(N2CC(C(=O)N3CCC4(CC3)CC(=O)c3ccccc3O4)CC2=O)c1 (centres undefined) | inconclusive: 89.1 µM [inhibitor, partial curve, poor fit] | – |
| Cc1ccc(OCC(=O)OC2=C(C(=O)c3ccccc3)N(C)S(=O)(=O)c3ccccc32)cc1 | inconclusive: 22.4 µM [inhibitor, full curve] | – |

| SMILES | Potency | activity change, negative = inhibition |
| --- | --- | --- |
| CC(=O)OC1c2c(ccc3ccc(=O)oc23)OC(C)(C)C1OC(=O)CC(C)C (centres undefined) | inconclusive: 89.1 µM [inhibitor, single point] | – |
| O=[N+]([O-])c1cc(-c2ccc(/C=N/c3nc4ccccn4c3-c3ccco3)o2)ccc1Cl | inconclusive: 28.2 µM [inhibitor, single point] | – |
| CCOC(=O)c1ccc(NC(=O)CN2CCN(C(=O)c3ccco3)CC2)cc1 | inconclusive: 56.2 µM [inhibitor, partial curve] | – |
| COc1ccc(/C(C)=N/NC(=S)NCCc2ccccc2)c(O)c1 | inactive | – |
| COc1ccc(-c2noc(C3CCCN(C(=O)c4ccc(C)cc4)C3)n2)cc1 (centres undefined) | inactive | – |
| CC(NC(=S)NC(=O)c1cccs1)c1ccccc1 (centres undefined) | inconclusive: 22.4 µM [inhibitor, single point] | – |
| O=c1cc(C(F)(F)F)[nH]c(=S)n1-c1ccccc1 | inconclusive: 25.1 µM [inhibitor, single point] | – |
| CCCNC(=S)N1CCC(Cc2ccccc2)CC1 | inactive | – |
| Cc1cc(C(=O)c2ccc3ccccc3c2)c(C)o1 | inconclusive: 44.7 µM [inhibitor, partial curve, poor fit] | – |
| Cc1nnc(N/N=C/c2ccc(O)c([N+](=O)[O-])c2)[nH]c1=O | inconclusive: 70.8 µM [inhibitor, partial curve] | – |
| COc1ccc(C2C(C#N)=C(N)OC(C(C)(C)C)=C2C#N)cc1OC (centres undefined) | inconclusive: 3.16 µM [inhibitor, full curve, poor fit] | – |
| COc1cccc(C2CC(=O)N(c3ccc(F)cc3)C3=C2C(=O)OC3)c1OC (centres undefined) | – | inactive: 46.6% [at 11.4 µM] |
| COc1ccc(N(CC(=O)NC2CC3CCC2C3)S(=O)(=O)c2ccc(C)cc2)cc1 (centres undefined) | inactive | – |
| O=C(Nc1ccc(C(=O)O)cc1)/C(=C\c1ccco1)NC(=O)c1ccco1 | inconclusive: 56.2 µM [inhibitor, partial curve] | – |
| C=CCOc1ccc(C2NC(=S)NC3=C2CCc2ccccc23)cc1 (centres undefined) | inconclusive: 89.1 µM [inhibitor, partial curve, poor fit] | – |
| N#CC12CCCCC1CC1CCCCC1(C#N)N2N (centres undefined) | inactive | – |
| O=C(NC1CCCCC1)C(c1ccc(F)cc1)N(Cc1ccco1)C(=O)Cn1nnc2ccccc21 (centres undefined) | inactive | – |
| O=C(COC(=O)CNC(=O)c1ccco1)Nc1ncc(Cl)cc1Cl | inconclusive: 39.8 µM [inhibitor, partial curve, poor fit] | – |
| Cc1ccnc(S(=O)(=O)Cc2ccc([N+](=O)[O-])cc2)n1 | inconclusive: 35.5 µM [inhibitor, partial curve, poor fit] | – |
| Cc1ccc(C(=O)C2=C(O)C(=O)N(CCCN3CCOCC3)C23C(=O)N(C)c2ccccc23)o1 (centres undefined) | inconclusive: 17.8 µM [inhibitor, single point] | – |
| Cc1cccc(NC(=O)Nc2cc(C)cc(C)n2)c1 | inactive | – |
| COc1ccc(/C(C)=N/NC(=O)c2sccc2-n2cccc2)cc1 | inactive | – |
| O=C1/C(=C/c2ccncc2)SC(=S)N1C1CCS(=O)(=O)C1 (centres undefined) | inconclusive: 50.1 µM [inhibitor, partial curve] | – |
